Structures are written as SMILES. In all, about 52,000 compounds went through this assay and about 1,700 (3.3%) were called active. No stated cut-off is given here; in the data, active means survival mostly below about 52% (no sharp cut-off); inactive means mostly above about 56%. The list shows a part of the results.

This experiment relates to Wild type. The experiment in a line: S. aureus survival, RN4220 and DeltatarO strains – OD600, teichoic acid synthesis inhibitors, primary screen (AID 463173). The settings on record: S. aureus RN4220 wild type/DeltatarO growth, OD600, 18 h, stronger effect = lower value, screened at 18.75 µg/mL (by protocol).
Take `CC1(NS(=O)(=O)c2ccccc2)CCS(=O)(=O)C1` (configuration not stated): the survival is inactive: 100%.

In the case of `NS(=O)(=O)c1ccc(CCNC(=O)C2COc3ccccc3C2)cc1` (configuration not stated), the survival was inactive: 73%.

Regarding `CCc1ccc(C2CC(=O)c3c([nH]c(C(=O)OCC4CCCCC4)c3C)C2)cc1` (configuration not stated), the survival is inactive: 92%.

With `Cc1cc(OCC(=O)Nc2ccc(-c3nc4cc(Cl)ccc4o3)cc2)cc(C)c1Cl`, the survival was inactive: 93%.

In the case of `Cc1ccc(-n2ncc3c(N4CCCCCC4)ncnc32)cc1`, the survival is inactive: 73%.

For `Cc1ccc(Cn2c(=O)c3cccnc3n(CC(=O)Nc3cccc(C(F)(F)F)c3)c2=O)cc1`, the survival was inactive: 84%.

With `O=C(COc1ccccc1)NCc1ccc2c(c1)CCN2C(=O)c1ccc(F)cc1`, the survival is inactive: 71%.

As for `CCc1cccc(NC(=O)Nc2ccc3c(c2)N(C)C(=O)c2ccccc2S3)c1`, the survival is inactive: 46%.

For the compound `c1ccc(-n2ncc3c(NC4CCCC4)ncnc32)cc1`, the survival was inactive: 121%.

As for `Cc1oc(C(C)(C)C)cc1C(=O)NC(Cc1ccccc1)C(=O)O` (configuration not stated), the survival was inactive: 98%.

As for `CCOc1ccc(NC(=O)C(=O)NCCc2csc(-c3ccc(F)cc3)n2)cc1`, the survival was inactive: 105%.

Take `CCC(=O)N1CCc2cc(Br)cc(S(=O)(=O)CCC(=O)NCCc3ccc(OC)c(OC)c3)c21`: the survival is inactive: 130%.

For the compound `CCOc1ccc(/C=C/c2nc(C#N)c(N3CCN(c4ccc(OC)cc4)CC3)o2)cc1`, the survival was inactive: 84%.

As to `Cn1cc(S(=O)(=O)N2CCCCCC2)cc1C(=O)N1CCN(c2ccc(F)cc2)CC1`, the survival is inactive: 71%.

Consider `COc1ccc(NS(=O)(=O)c2cc3[nH]c(=O)c(=O)[nH]c3cc2C)cc1Cl`, for which the survival is inactive: 110%.

With `CC(C)OCCCn1c(SCc2ccccc2C#N)nc2c(sc3ccccc32)c1=O`, the survival was inactive: 76%.

In the case of `Cc1ccc(NC(=O)Cc2c(C(=O)O)c(C)cn2C)cc1Cl`, the survival was inactive: 87%.

With `O=C(CN1C2=NCCN2c2ccccc21)c1ccco1`, the survival was inactive: 103%.

As for `COc1cc(OC)c(NC(=O)CN2C(=O)CCn3nc(-c4cccn4C)cc32)cc1Cl`, the survival is inactive: 57%.

As for `CN(C(=O)C1CCCN(c2ncnc3c2nc2n3CCCCC2)C1)c1ccccc1F` (configuration not stated), the survival is inactive: 81%.

Consider `NC(=O)CSc1nnc(COc2cccc3ccccc23)o1`, for which the survival was inactive: 112%.

With `CCN(CC)CC(C)CNC(=O)CN1C(=O)CSc2ccc(S(=O)(=O)N3CCOCC3)cc21` (configuration not stated), the survival was inactive: 131%.

Turning to `Cc1ccc(CNC(=O)c2cc3sccc3n2Cc2ccc(Cl)cc2)cc1`, the survival was inactive: 103%.

Turning to `CC(CCc1ccccc1)NC(=O)Cn1ncc2c3ccccc3n(Cc3ccc(F)cc3)c2c1=O` (configuration not stated), the survival is inactive: 86%.

On to `CCCn1c(=O)c2sccc2n2c(CCCC(=O)NCCc3ccc(Cl)cc3)nnc12`, for which the survival is inactive: 95%.

With `CCOc1ccccc1NC(=O)NC1(C(=O)NCc2ccco2)CCCCC1`, the survival is inactive: 96%.

As for `CC(C)c1ccc(S(=O)(=O)c2nnn3c2nc(NCCc2ccccc2)c2sccc23)cc1`, the survival was inactive: 62%.

Turning to `Cc1nn(C(=O)c2cccc([N+](=O)[O-])c2C)c(C)c1S(=O)(=O)N1CCOCC1`, the survival is inactive: 64%.

With `COc1cc(-c2ccno2)ccc1S(=O)(=O)N1CCN(c2cc(C)ccc2C)CC1`, the survival was inactive: 63%.

Consider `COCC(=O)Oc1c(Sc2ccc(C)cc2)c(C)nn1C(C)(C)C`, for which the survival was inactive: 69%.

With `Cc1ccc(NC(=O)CC(C)S(=O)(=O)c2ccc3c(c2)NC(=O)CO3)c(C)c1` (configuration not stated), the survival is inactive: 77%.

Turning to `COc1ccc2nc(Cl)c(CN(Cc3ccc(F)cc3)C(=O)c3ccco3)cc2c1`, the survival was inactive: 107%.

In the case of `Cc1cc(C)cc(Oc2nc3c(C)cccn3c(=O)c2/C=C(\C#N)c2nc3ccccc3[nH]2)c1`, the survival is inactive: 69%.

`COc1cccc(N2CC(NC(=O)C(c3ccccc3)c3ccccc3)CC2=O)c1` (configuration not stated): the survival was inactive: 65%.

As for `Cc1ccc2nc(-c3ccsc3)c(Nc3ccccc3C)n2c1`, the survival is inactive: 47%.

For `Cc1nc2nncn2c(N2CCN(c3ccccc3)CC2)c1C`, the survival is inactive: 98%.

Take `COc1ccccc1/C=C/c1nc(C#N)c(N2CCCCC2)o1`: the survival is inactive: 88%.

With `COCCNC(=O)Cc1ccc(NC(=O)N2CCCCc3ccccc32)cc1`, the survival is inactive: 121%.

`O=C(NCc1ccc(F)cc1)c1ccc(CSCc2cccc(Cl)c2)o1`: the survival is inactive: 65%.

Consider `CC(C)NC(=O)C1CCN(C(=O)NCc2ccccc2)CC1`, for which the survival is inactive: 99%.

Turning to `CCN(CC)C(=O)C1CCN(S(=O)(=O)c2ccc3c(c2)CCCN3C(C)=O)CC1`, the survival was inactive: 135%.

As to `Cc1ccc(-c2cc(C(F)(F)F)n3nc(C(=O)Nc4ccc(Cl)cc4Cl)cc3n2)cc1`, the survival is inactive: 87%.

Regarding `Cc1ccc(NC(=O)CSc2ncc3c(n2)-c2ccccc2N(Cc2cccc(F)c2)S3(=O)=O)cc1F`, the survival was inactive: 55%.

Take `Cc1ccc(N2CC(NC(=O)/C=C\c3ccc4c(c3)OCO4)CC2=O)cc1C` (configuration not stated): the survival is inactive: 130%.

With `O=C1c2ccccc2C(=O)C1(c1ccccc1)N1CCN(c2cccc(Cl)c2)CC1`, the survival was inactive: 135%.

On to `COCCNC(=O)c1cnn(-c2ccc(C)cc2C)c1C1CCN(C(=O)OC(C)(C)C)CC1`, for which the survival was inactive: 88%.

As for `COc1ccc(-n2c(/C=C/c3ccccc3F)nc3cc(OC)c(OC)cc3c2=O)cc1Cl`, the survival is inactive: 69%.

`Cc1ccccc1Cn1c(C(=O)O)c(CNCc2cccc(F)c2)c2ccccc21`: the survival is inactive: 64%.

For `Cn1cc(CN(C(=O)Nc2ccc(Cl)c(Cl)c2)C2CCCCC2)c2ccccc21`, the survival was inactive: 60%.

As for `CC1CN(C(=O)Nc2ccc(C(=O)NCCc3ccccc3)cc2)c2ccccc2S1` (configuration not stated), the survival was inactive: 113%.

Turning to `Cc1cc(C)nc(NS(=O)(=O)c2ccc(NC(=O)COc3ccc(Cl)cc3C)cc2)n1`, the survival is inactive: 98%.

With `CCNC(=O)C1CN(S(=O)(=O)c2ccccc2)CCN1S(=O)(=O)c1ccccc1` (configuration not stated), the survival is inactive: 108%.

Turning to `CCOc1ccc(C(=O)Nc2cc(-c3nc4ccccc4o3)ccc2C)cc1Cl`, the survival is inactive: 65%.

Take `CCN(Cc1ccccc1)C(=O)c1c(C)oc2ncn(C)c(=O)c12`: the survival is inactive: 66%.

`O=C(CSc1nccn1Cc1ccccc1)NCc1ccc(F)cc1`: the survival is inactive: 59%.

In the case of `CCOc1cc(-c2ccc(OC(=O)c3ccccc3F)cc2)cc(=O)c2c(C)oc(C)c12`, the survival was inactive: 78%.

In the case of `Cc1ccc(C(C(=O)NCc2ccccc2)N(C(=O)C2COc3ccccc3O2)c2cccc(O)c2)o1` (configuration not stated), the survival is inactive: 53%.

These data come from PubChem BioAssay AID463173 (ICCB-Longwood Screening Facility, Harvard Medical School, 2010).
